Several values for one entry are separate records, joined by “and”; a condition that tells them apart may be missing. Equal values may be shown once. About 540 (0.19%) of roughly 280,000 compounds were called active. This list was built around the results that the source calls inconclusive (neither active nor inactive); the mix of calls is not that of the screen. Calls follow the shape of the dose curve; as a rule, active = well fitted activation curve with a large enough effect; inconclusive = small, poorly fitted or top-dose-only effect; inactive = flat fitted curve, though single readings scatter. A potency beside an inconclusive call is a rough fit, not a confirmed value.
assay: Quantitative High-Throughput Screen for Regulators of Epigenetic Control; conditions: murine LDR cells, GFP reporter derepression, 30 h; GFP activation: at 53.9 µM (top of the series); also: nearly all actives have a fitted effect of over 60% in size; as to GFP activation: % of control where 0% means no effect
How it was run: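 Reporter derepression read as number of fluorescent GFP-positive objects, 20-120 um in size, counted by laser-scanning cytometer. Mouse LDR line with an epigenetically silenced CMV-GFP locus; compound incubation 30 h, 37 C.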
Potency is read from the fitted curve at half-maximal effect; tags tell the direction and shape of the fitted curve.

| SMILES | Potency | GFP activation |
| --- | --- | --- |
| COc1ccc(CCNC(=O)c2ccc(-n3c(C)cc4c3CCC(C)C4)cc2)cc1OC (stereo not drawn) | inconclusive: 35.5 µM [activator, single point] |  |
| COC(=O)[C@@]1(Cc2ccc(OC)cc2)[C@H]2c3cc(C(=O)N(C)C)n(Cc4ccc(C)o4)c3C[C@H]2CN1C(=O)c1ccccc1 | inconclusive: 31.6 µM [activator, single point] |  |
| NS(=O)(=O)c1ccc(N/N=C/c2ccc(O)cc2O)c([N+](=O)[O-])c1 |  | inactive: -0.586% |
| N#Cc1ccccc1CSc1nnc(-c2ccc(Br)cc2)o1 | inconclusive: 3.98 µM [activator, single point] |  |
| Cc1nc(Cl)sc1C(=O)Nc1ccccc1 |  | inactive: -6.41% |
| O=c1[nH]c(=O)n(Cc2ccco2)c2c1C(C(F)(F)F)(C(F)(F)F)N=C(CCC1CCCCC1)N2 | inconclusive: 35.5 µM [activator, single point] |  |
| S=C(Nc1ccc2nsnc2c1)NC1CCCCC1 | inconclusive: 25.1 µM [activator, single point] |  |
| Cc1ccc(-c2nc(CSc3nnc(C)n4c3cc3occc34)c(C)o2)cc1 |  | inactive: 7.86% |
| COc1cc(S(=O)(=O)N(Cc2ccco2)C2CCCC2)ccc1-n1cnnn1 | inconclusive: 7.08 µM [activator, single point] |  |
| CC[C@@H]1CC=C[C@H]2[C@H]1C(=O)N(Cc1ccccc1)[C@H]2c1ccoc1 | inconclusive: 35.5 µM [activator, single point] |  |
| Cc1cc(N2CCC(C)CC2)nc2ccc(NC(=O)Cc3ccccc3Br)cc12 | inconclusive: 35.5 µM [activator, single point] |  |
| CCOc1ccccc1N1CSC2=C(C#N)C(c3c(OC)ccc4ccccc34)CC(=O)N2C1 (stereo not drawn) | inconclusive: 25.1 µM [activator, single point] |  |
| O=C(COc1cccnc1[N+](=O)[O-])NCCc1ccccc1 | inconclusive: 25.1 µM [activator, single point] |  |
| CC(=O)c1c(C)[nH]c(C(=O)COc2cc(C)ccc2C(C)C)c1C | inconclusive: 0.0891 µM [activator, full curve, poor fit] |  |
| O=C(CCCN1C(=O)/C(=C\c2ccco2)SC1=S)Nc1cccc2ccccc12 | inconclusive: 35.5 µM [activator, single point] |  |
| COC(=O)CSc1cc(SCC(=O)OC)c(C#N)c(SCC(=O)OC)c1 |  | inactive: 0.116% |
| CC1CCCCN1c1cc2c(cc1F)c(=O)c(S(=O)(=O)c1ccccc1)cn2Cc1ccccc1 (stereo not drawn) |  | inactive: -2.8% |
| CCN(CC)c1ccc(/C=c2\sc3nc4ccccc4n3c2=O)c(O)c1 | inconclusive: 25.1 µM [activator, single point] |  |
| CC(C)n1cc(/C=C2/SC(=O)N(CC(=O)Nc3ccc4c(c3)OCO4)C2=O)c2ccccc21 | inconclusive: 31.6 µM [activator, single point] |  |
| COc1cccc(Nc2ncccc2C(=O)NCc2ccccc2)c1 | inconclusive: 31.6 µM [activator, single point] |  |
| Cc1cc(C)n2nc(CNC(=O)c3ccc(Cl)cc3)nc2n1 |  | inactive: 2.92% |
| CC(=O)Cn1ncc(Br)c(Br)c1=O |  | inactive: -2.33% |
| NC(=O)c1c(NC(=O)C2COc3ccccc3O2)sc2c1CCN(Cc1ccccc1)C2 (stereo not drawn) | inconclusive: 25.1 µM [activator, single point] |  |

| SMILES | Potency | GFP activation |
| --- | --- | --- |
| S=C(Nc1ccccn1)c1ccccn1 | inconclusive: 6.31 µM [activator, single point] and inconclusive: 4.47 µM [activator, single point] |  |
| COC(=O)c1ccc(-n2nnnc2SCC(=O)Nc2cc(OC)ccc2OC)cc1 | inconclusive: 3.16 µM [activator, single point] |  |
| CCSC1=N/C(=C\C=C2/Oc3ccccc3N2CC)C(=O)S1 | active: 11.2 µM |  |
| COC(=O)Cc1csc(/N=C/c2c(O)n(-c3cccc(C(F)(F)F)c3)c(=O)c3ccccc23)n1 | inconclusive: 3.55 µM [activator, single point] |  |
| CCOCc1cc(CN2CCN(c3cccc(C(F)(F)F)c3)CC2)c(O)c2ncccc12 | inconclusive: 5.62 µM [activator, single point] |  |
| Cc1cccc(/C=C/C(=O)c2ccc(NC3=NCCCS3)cc2)c1 |  | inactive: 3.33% |
| CCc1ccc(S(=O)(=O)c2nnn3c2nc(Nc2ccc(NC(C)=O)cc2)c2sccc23)cc1 | inconclusive: 25.1 µM [activator, single point] |  |
| Fc1cc(F)c2nc(N3CCCCC3)sc2c1 | inconclusive: 3.55 µM [activator, single point] |  |
| COC(=O)CSCc1nc2ccccc2[nH]c1=O | active: 25.1 µM |  |
| Cc1cccc(OCC(=O)Nc2nnc(S(=O)(=O)N3CCc4ccccc43)s2)c1 | inconclusive: 3.55 µM [activator, full curve] |  |
| O=[N+]([O-])c1ccc(NC(=S)NCCc2ccc(Cl)cc2)cc1 |  | inactive: -2.86% |
| O=C(Nc1ccc(-c2nc3cc(Cl)ccc3o2)cc1)c1cc2ccccc2o1 | inconclusive: 11.2 µM [activator, single point] |  |
| C1CCc2c(nc3nnnn3c2NC2CCCC2)C1 | inconclusive: 35.5 µM [activator, single point] |  |
| COc1ccc(CCNC(=O)NC(C(F)(F)F)C(F)(F)F)cc1OC | inconclusive: 6.31 µM [activator, single point] |  |
| Cc1cc(C2N=C(N)Nc3nc4ccccc4n32)c(C)n1-c1ccccc1Cl (stereo not drawn) | inconclusive: 11.2 µM [activator, partial curve] |  |
| Clc1ccccc1Cn1c(/C=C/c2ccco2)nc2ccccc21 | inconclusive: 25.1 µM [activator, single point] |  |
| O=C(Nc1ccc(F)cc1)Nc1sccc1-c1nc2ccccc2s1 | inconclusive: 35.5 µM [activator, single point] |  |
| Cc1ccccc1NC(=O)Cn1c(=O)n(Cc2ccccc2)c(=O)c2c(C)c(C)sc21 | inconclusive: 14.1 µM [activator, single point] |  |
| O=c1c(O)c(-c2cc(O)c(O)c(O)c2)oc2cc(O)cc(O)c12 | inconclusive: 2.82 µM [activator, single point] |  |
| Cc1ccc(N2C(=O)[C@@H]3[C@H](C2=O)C2CCCN2[C@@H]3C(=O)c2ccccc2)cc1 (stereo partly drawn) | inconclusive: 28.2 µM [activator, single point] |  |
| CCN(CC)C(=O)C1CCCN(Cc2ccc3c(c2)OCO3)C1 (stereo not drawn) |  | inactive: -0.132% |
| CCCCN1C(=O)/C(=C/C=C2\SCCN2C)SC1=S | active: 17.8 µM |  |
| CC(C)C1C(C#N)=C(N)SC(N)=C1C#N |  | inactive: -12.7% |

| SMILES | Potency | GFP activation |
| --- | --- | --- |
| COc1cccc([C@@H]2Oc3ccc(OC)cc3C[C@H]2O)c1 |  | inactive: -1.14% |
| Cc1cccc(OCC(=O)NCC(=O)N/N=C/c2ccc(O)cc2O)c1 |  | inactive: 1.39% |
| CCc1ccc(C(=O)c2cn(CC(=O)Nc3ccc4c(c3)OCCO4)c3ccc(F)cc3c2=O)cc1 | inconclusive: 35.5 µM [activator, single point] |  |
| COc1cccc(CC2(CO)CCCN(S(=O)(=O)N(C)C)C2)c1 (stereo not drawn) |  | inactive: -4.75% |
| O=C(CCl)c1ccc2c(c1)CCN2C(=O)C1CCCCC1 | inconclusive: 35.5 µM [activator, single point] |  |
| Cc1c(C(=O)NCc2ccc(Cl)cc2)oc2ccc3c(c12)C(=O)CC(C)(C)O3 |  | inactive: 1.35% |
| C=CCSc1nc2ccccc2n1C(=O)/C=C/c1cc(OC)c(OC)c(OC)c1 | inconclusive: 5.62 µM [activator, single point] |  |
| Nc1c(C(=O)Nc2ccccc2)sc2nc(-c3cccnc3)ccc12 | active: 3.55 µM |  |
| Cc1[nH]c2ccccc2c1C(=O)CSc1ccc(F)cc1 | inconclusive: 25.1 µM [activator, single point] |  |
| Cc1cccc(Cn2c(SCc3ccc(C(=O)N4CCCCCC4)cc3)nc3ccncc32)c1 | inconclusive: 31.6 µM [activator, single point] |  |
| O=C(NC1CCCCC1)C(c1ccccc1F)N(Cc1ccco1)C(=O)Cn1nnc2ccccc21 (stereo not drawn) |  | inactive: -0.544% |
| COc1ccc(N=C/C=C2/C=C(c3ccccc3)OC(C)(C)O2)cc1 | inconclusive: 31.6 µM [activator, single point] |  |
| O=C(/C=C\Nc1ccc2c(c1)OCO2)c1ccc(Cl)s1 | inconclusive: 22.4 µM [activator, single point] |  |
| COc1cccc(NS(=O)(=O)c2ccc3[nH]cc(C(=O)NCCCOC(C)C)c(=O)c3c2)c1 | inconclusive: 17.8 µM [activator, single point] |  |
| Cc1cc(NC(=O)Nc2cccc3ccccc23)no1 | inconclusive: 6.31 µM [activator, single point] |  |
| CC(C)c1ccc(/C=N/NC(=O)c2cccc(Cl)c2)cc1 | inconclusive: 14.1 µM [activator, single point] |  |
| Cc1cc(C)c(C#N)c(SCc2nc3ccccc3c(=O)[nH]2)n1 | inconclusive: 35.5 µM [activator, single point] |  |
| Oc1c(I)cc(I)c2cccnc12 | inconclusive: 31.6 µM [activator, single point] |  |
| CCc1ccc(CN(Cc2ccco2)C(=O)c2ccccc2Cl)cc1 | inconclusive: 20 µM [activator, single point] |  |
| O=[N+]([O-])c1ccc(Oc2cccc3cccnc23)c([N+](=O)[O-])c1 | active: 12.6 µM |  |
| COC(=O)c1cc(NC(=O)CCc2c(C)nc3c4c(C)cc(C)nc4nn3c2C)cc(C(=O)OC)c1 | inconclusive: 35.5 µM [activator, single point] |  |
| COc1ccc(S(=O)(=O)N2CCN(c3ccc(F)cc3)CC2)cc1-c1noc(C)n1 | inconclusive: 5.62 µM [activator, single point] |  |

From PubChem BioAssay AID1865 (National Center for Advancing Translational Sciences (NCATS), 2009)
